Test results reported in PubChem BioAssay AID485344 (National Center for Advancing Translational Sciences (NCATS), 2010).
Among all 340,000 compounds or so, about 6,900 (2%) were called active. Cut-off read from the data, not from the text of the source: active = inhibition above about 30%; inactive = below that, where a call was filed. This is a selection; strong and weak results do not stand in their true shares. The source gives no active or inactive call for entries shown without one.
Note: 0% is about no effect.

The compounds below were run against D(2) dopamine receptor (Homo sapiens) (UniProt P14416) (assay: HTS Assay for Allosteric Antagonists of the Human D2 Dopamine Receptor: Primary Screen for Antagonists). Settings: HEK293 TREx D2 cells, calcium flux, dopamine EC80; at 10 µM; stronger effect = higher value.
UniProt P14416, sequence (P14416 whole entry, looked up): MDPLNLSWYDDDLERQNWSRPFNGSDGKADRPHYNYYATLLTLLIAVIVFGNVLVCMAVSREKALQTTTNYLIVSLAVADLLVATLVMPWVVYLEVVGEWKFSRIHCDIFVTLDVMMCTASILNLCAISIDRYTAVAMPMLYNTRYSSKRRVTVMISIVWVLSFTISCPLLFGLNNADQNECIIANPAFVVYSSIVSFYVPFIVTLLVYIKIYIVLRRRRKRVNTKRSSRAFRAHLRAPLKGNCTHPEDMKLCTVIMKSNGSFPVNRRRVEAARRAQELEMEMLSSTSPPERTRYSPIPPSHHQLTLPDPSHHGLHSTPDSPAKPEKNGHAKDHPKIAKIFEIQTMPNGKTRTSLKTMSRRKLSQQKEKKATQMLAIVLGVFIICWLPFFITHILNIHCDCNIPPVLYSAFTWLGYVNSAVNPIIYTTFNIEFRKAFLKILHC
Summary of the method: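 Cells plated overnight at 30 C with tetracycline; no-wash calcium dye, 30–90 min RT; 10 s baseline; compound pinned; 180 s read; EC80 dopamine added; another 180 s read.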
In the case of `CCOC(=O)Cn1c(=O)n(-c2ccc(Cl)cc2)c2nc(-c3ccc(Cl)cc3)nc(C(N)=O)c21`, the inhibition is reported as -1.04%.
For `O=C(NCCCc1nc2ccccc2n1Cc1ccccc1F)c1ccco1`, the inhibition was -3.19%.
With `COc1cc(CNc2ccc3[nH]c(=O)[nH]c3c2)cc(Cl)c1OCc1ccc(F)cc1` the inhibition was 5.87%.
With `COc1ccc(NC(=O)CN(c2ccc(C)cc2)S(=O)(=O)c2cccs2)cc1` the inhibition was -11.2%.
In the case of `Cc1nn(C(C)(C)C)c(OC(=O)c2c(F)cccc2F)c1Sc1ccccc1`, the inhibition is reported as -12.9%.
Compound `O=C(Nc1ccc(S(=O)(=O)N(Cc2ccccc2)c2ccccc2)cc1)c1ccc(F)cc1` has an inhibition of -1.31%.
`O=C(CCCn1c(=O)c2ccccc2n(Cc2cccc(F)c2)c1=O)NCc1ccccc1Cl` showed an inhibition of 8.81%.
In the case of `O=C(CCc1ccccc1)N1CCc2c([nH]c3ccccc23)C1c1ccc(F)cc1` (configuration not stated), the inhibition is reported as -3.36%.
`CCCCNC(=O)c1sc2ncccc2c1-n1cccc1` was tested, and the inhibition was 13.8%.
For `O=C(c1ccc(Br)o1)N1CCN(CCOc2ccccc2)CC1`, the inhibition was active: 86.3%.
With `COC(=O)c1ccc(OC)c(CN2C(=O)N(c3ccc(C(C)=O)cc3)S(=O)(=O)c3ccccc32)c1` the inhibition was -12.5%.
With `Cc1ccc(CNCc2c(C(=O)O)n(Cc3ccc(C)cc3)c3cc(C)ccc23)cc1` the inhibition was 9.43%.
Compound `CCOC(=O)c1c(C)[nH]c(CCC(=O)Nc2ccc(Cl)cc2C)c1C` has an inhibition of -2.18%.
`COc1ccc(-c2noc(CNS(=O)(=O)c3ccc(Br)cc3)n2)cc1OC` was tested, and the inhibition was -6.46%.
`Cc1ccc(-c2noc(CN(C(=O)COc3cc(C)cc(C)c3C)C(C)C)n2)cc1` gave an inhibition of -4.75%.
`Cc1cc(C)cc(NC(=O)CSc2nnc(-c3cc4occc4n3C)n2-c2ccccc2C)c1` was tested, and the inhibition was 15.8%.
`O=S(=O)(NCCc1csc2nc(-c3ccccc3)nn12)c1ccc(Cl)s1` showed an inhibition of 1.33%.
Compound `COc1ccc2c(CNC3CCCCCC3)c(C(=O)O)n(Cc3cccc(F)c3)c2c1` has an inhibition of -2.93%.
In the case of `Cc1ccc(S(=O)(=O)N(C)C)cc1NC(=S)NC(C)CCCC(C)C` (configuration not stated), the inhibition is reported as active: 74.9%.
Work on `CCN(CC)CCSc1nnc2c3cc(F)ccc3n(C)c2n1` yielded an inhibition of 2.74%.
In the case of `CCCCNC(=O)C1CCN(S(=O)(=O)c2ccc3c(ccn3CC)c2)CC1`, the inhibition is reported as 25.1%.
With `CC(C)NC(=O)C1CCN(C(=O)c2cc3sccc3n2Cc2ccc(Cl)cc2)CC1` the inhibition was 2.07%.
`Cc1cc(C)c(NC(=O)c2ncoc2-c2ccco2)c(C)c1` was tested, and the inhibition was 3%.
In the case of `Cn1c(=O)c2c(c3ccccc31)OC(=O)CC2c1cccc(F)c1` (configuration not stated), the inhibition is reported as -19.1%.
`CCOc1ccc(NC(=O)c2cc3c(=O)n(Cc4cccs4)ccc3nc2C)cc1` gave an inhibition of 0.366%.
`O=C(Nc1ccc(Cl)cc1)N1CCN(c2ccc3nnc(-c4ccccc4)n3n2)CC1` gave an inhibition of 4.55%.
`Cc1cccc(C(=O)NNC(=O)CSc2nnc(C(C)C)n2C)c1` was tested, and the inhibition was active: 41.8%.
`COc1ccccc1N(CC(=O)NCCSCc1cccc(Cl)c1)S(C)(=O)=O` gave an inhibition of -16.9%.
`O=C(C1CCC(Cn2c(=O)c3sccc3n(Cc3ccccc3F)c2=O)CC1)N1CCCCC1` (configuration not stated) gave an inhibition of -15%.
In the case of `COc1ccccc1CNC(=O)c1cnc(N2CCCC2)nc1C`, the inhibition is reported as 5.97%.
`CCCOC(=O)c1ccc(Cn2nnc3sc4c(c3c2=O)CCC(C)C4)cc1` (configuration not stated) gave an inhibition of 3.82%.
`CCOc1ccc(NC(=O)c2cc(S(=O)(=O)N3CCOCC3)ccc2F)cc1` was tested, and the inhibition was 26.4%.
`CC1CCN(c2oc(/C=C/c3ccc(F)cc3)nc2C#N)CC1` showed an inhibition of -5.61%.
`CCOc1ccc(-c2nc(Cn3c(=O)cc(C)c4c(C)nn(-c5ccc(C)cc5)c43)c(C)o2)cc1` showed an inhibition of 8.97%.
For `CCc1c(C)sc2c1CCN(C(=O)Nc1ccc(F)c(Cl)c1)C2c1ccc(F)cc1` (configuration not stated), the inhibition was 20.5%.
`COc1ccccc1NC(=O)C1=C(C)Nc2nc(SCc3ccccc3)nn2C1c1cccnc1` (configuration not stated) showed an inhibition of 6.09%.
`O=C(Nc1ccccc1)C1CCN(S(=O)(=O)c2ccc3[nH]c4c(c3c2)CCCCC4)CC1` gave an inhibition of 6.81%.
Compound `COc1ccc(CCNC(=O)CCn2c(=O)c3ccccc3n(CC(=O)Nc3ccc(C)cc3C)c2=O)cc1OC` has an inhibition of -4.4%.
`CCOc1ccc(S(=O)(=O)c2cn(Cc3cc(C)ccc3C)c3ccc(OCC)cc3c2=O)cc1` showed an inhibition of -10.7%.
`CCOC(=O)Cn1c(=O)oc2cc(S(=O)(=O)N3CCN(c4ccc(C(C)=O)cc4)CC3)ccc21` was tested, and the inhibition was 26.7%.
Compound `COc1cccc(Nc2nc3cc(Cl)c(Cl)cc3nc2-n2nc(C)cc2C)c1` has an inhibition of 13.1%.
In the case of `COc1ccc(NC(=O)Cn2nc(C)c3nn(-c4ccc(Cl)cc4)c(C)c3c2=O)cc1`, the inhibition is reported as 16.9%.
Compound `CCN(CCCNC(=O)c1cc(Nc2ccccc2OC)nc2ccccc12)c1cccc(C)c1` has an inhibition of 20.9%.
In the case of `CCN(CC)c1ccc(/C=C/C(=O)c2ccc(Br)cc2)cc1`, the inhibition is reported as active: 71%.
With `COc1ccc(OC)c(CCNC(=O)c2c3c(nc4ccccc24)C(=O)N(C2CCCCC2)C3)c1` the inhibition was 13.4%.
Work on `COc1ccc(-c2noc(C3CC(=O)N(c4ccccc4)C3)n2)c(OC)c1` (configuration not stated) yielded an inhibition of 11%.
`O=C(CSc1nc2c([nH]c3ccccc32)c(=O)n1-c1ccc(Cl)cc1)N1CCCC1` showed an inhibition of 4.36%.
`Cc1cc(C)c(NC(=O)COc2ccc3c(C)cc(=O)oc3c2)c(C)c1` gave an inhibition of -9.76%.
Compound `O=S(=O)(NCC(Nc1ccc(Cl)cc1)c1ccccc1)c1ccccc1` (configuration not stated) has an inhibition of -4.93%.
In the case of `COc1ccc(-c2cn3nc(SCC(=O)Nc4ccc(C)c(Cl)c4)ccc3n2)cc1`, the inhibition is reported as 2.26%.
`Cc1ccc(NC(c2ccc(Cl)cc2)c2nnc(-c3cccc(F)c3)o2)cc1C` (configuration not stated) gave an inhibition of -11.1%.
With `COC(=O)c1ccc(NC(=O)CN2C(=O)c3cccc4cccc2c34)cc1` the inhibition was -9.92%.
`COC(=O)CCNC(=O)N1CCN(c2nnc(C)c3c(C)n(-c4ccc(Cl)cc4)nc23)CC1` was tested, and the inhibition was 6.47%.
`Cc1ccccc1C(=O)OCCN(C)Cc1ccccc1` was tested, and the inhibition was active: 31.5%.
Compound `COc1ccccc1-n1c(-c2ccc(C)cc2)cn2c3c(=O)n(C)c(=O)n(C)c3nc12` has an inhibition of -0.701%.
Work on `Cc1nc(SCC(=O)Nc2ccccc2F)[nH]c(=O)c1Cc1ccccc1` yielded an inhibition of -1.44%.
`COc1ccc(NC(=O)c2cnc[nH]2)cc1` was tested, and the inhibition was 9.91%.
With `CCc1nn(CC(=O)NCc2ccccc2Cl)c(=O)c2cccn12` the inhibition was 2.79%.
For `COc1ccc(CCNC(=O)c2ccc3c(c2)N(Cc2ccc(F)cc2)CCS3)cc1OC`, the inhibition was -13.1%.
In the case of `Cc1nc(-c2ccc(S(=O)(=O)Nc3ccc(C)c(N(C)C)c3)cc2)co1`, the inhibition is reported as -1.22%.
For `Cc1cc(C)cc(NC(=O)c2cccc3c2C(=O)N(C2CCCCC2)C3)c1`, the inhibition was 2.04%.
In the case of `COCCNc1nc(-c2cc3ccccc3o2)cs1`, the inhibition is reported as active: 37.9%.
Work on `O=C(COc1ccccc1[N+](=O)[O-])Nc1ccc(-c2nc3ccccc3s2)cc1` yielded an inhibition of -3.57%.
With `Cc1cccc(OCC(=O)Nc2ccc3c(c2)nc(CCN2CCN(c4ccccn4)CC2)n3C)c1` the inhibition was active: 30.8%.
Compound `CCOc1ccccc1CNC(=O)c1cccn1-c1nnc(N2CCCCC2)s1` has an inhibition of 8.13%.
`COc1ccccc1N1CCN(C(=O)c2cc(-c3ccccc3O)on2)CC1` gave an inhibition of 25.8%.
`CCOc1ccc(C(=O)Nc2cc(-c3nc4ccccc4s3)ccc2OC)cc1` gave an inhibition of 16%.
For `COc1ccc(C2=C(Nc3ccc(C)c(C)c3)c3ccccc3C2=O)cc1`, the inhibition was 14.8%.
Compound `Cc1c(C(=O)Nc2ccc(F)cc2)sc2nc[nH]c(=O)c12` has an inhibition of -7.38%.
`CCc1ccccc1NC(=O)c1cc(S(=O)(=O)N2CCCc3ccccc32)ccc1F` was tested, and the inhibition was 3.38%.
`CC(C)CCn1c(=O)c2sccc2n2c(CCCC(=O)NCc3ccc(F)cc3)nnc12` was tested, and the inhibition was 5.25%.
For `O=C(Cn1c(=O)c2cccn2c2ccc(F)cc21)N1CCN(c2ccc(F)cc2)CC1`, the inhibition was 11.2%.
With `CCOc1ccc(N(C)C(CNS(=O)(=O)c2ccccc2)c2ccccc2)cc1` (configuration not stated) the inhibition was -2.4%.
Compound `COc1ccccc1-c1cc2nc(C)c(CCC(=O)NCc3cccc(Cl)c3)c(C)n2n1` has an inhibition of 15.5%.
`CC(=O)c1ccc(NC(=O)CN(C)S(=O)(=O)c2cccc3nsnc23)cc1` showed an inhibition of -18.4%.
In the case of `COc1cc2oc(=O)c(Br)c(C)c2c(OC)c1OC`, the inhibition is reported as active: 39.1%.
`CCOC(=O)C1CCCN(CCC(=O)Nc2cccc(C)c2)C1` (configuration not stated) was tested, and the inhibition was -4.06%.
Compound `COc1ccc(N2CC(NC(=O)C3CC3)CC2=O)cc1OC` (configuration not stated) has an inhibition of 10.1%.
Compound `COC(=O)c1cnn2c(C)c(Cc3c(C)cc(C)cc3C)c(C)nc12` has an inhibition of 20.1%.
With `O=C(Nc1nnc(S(=O)(=O)N2CCCc3ccccc32)s1)c1ccccc1` the inhibition was 4.94%.
In the case of `O=c1c(CN2CCN(c3ccccn3)CC2)coc2ccccc12`, the inhibition is reported as active: 79.2%.
`CCC1CN(C(=O)Nc2cccc3c2CCCC3)c2ccccc2O1` (configuration not stated) gave an inhibition of -27.3%.
Work on `COc1ccc(NC(=O)CCn2c(=O)c3cccn3c3ccccc32)c(OC)c1` yielded an inhibition of -20.5%.
Work on `Cc1ccc2c(=O)cc(C(=O)Nc3ccc(S(=O)(=O)N(C)Cc4ccccc4)cc3)oc2c1` yielded an inhibition of -8.72%.
`CCN(CC)S(=O)(=O)c1ccc2c(c1)c(=O)c(C(=O)N1CCN(c3cccc(C)c3)C(C)C1)cn2C` (configuration not stated) showed an inhibition of -6.91%.
For `COc1cccc(C(C(=O)NC2CCCCC2)N(Cc2ccco2)C(=O)c2ccccn2)c1` (configuration not stated), the inhibition was active: 34.1%.
For `O=C(Nc1cccc(Cl)c1)c1ccc(F)c(S(=O)(=O)N2CCC3(CC2)OCCO3)c1`, the inhibition was 9.32%.
With `Cc1cc(NC(=O)CCNS(=O)(=O)c2ccc3c(c2)oc(=O)n3C)ccc1Br` the inhibition was -3.59%.
`CCN(C(=O)Cn1nnc2sc(-c3ccccc3)cc2c1=O)c1cccc(C)c1` was tested, and the inhibition was 13.1%.
With `COC(=O)C(C)Sc1ccc2nnc(CCNS(=O)(=O)c3ccccc3)n2n1` (configuration not stated) the inhibition was active: 36.9%.
With `CCN(CC)C(=O)c1cc(-c2ccc(Cl)cc2)on1` the inhibition was 1.45%.
For `CCC(C)NC(=O)CSc1nc2n[nH]c(C)c2c(=N)n1-c1ccc(C)c(Cl)c1` (configuration not stated), the inhibition was 3.64%.
`O=C(C1CCN(CCCc2ccccc2)CC1)N(CCc1ccccc1)Cc1ccccc1` was tested, and the inhibition was active: 38.7%.
`O=C(Nc1ccc(F)cc1F)c1cc2nc(-c3ccco3)cc(C(F)(F)Cl)n2n1` gave an inhibition of 1.86%.
`CCC(Sc1nc2ccccc2c2nc(-c3ccccc3)nn12)C(=O)Nc1cccc(OC)c1` (configuration not stated) showed an inhibition of -0.24%.
In the case of `COC(=O)c1c(NC(=O)CS(=O)(=O)c2ccc(C)cc2)sc2c1CCCC2`, the inhibition is reported as -26.7%.
Work on `Cc1ccc2oc(=O)c3cnn(CC(=O)N4CCN(c5ccccc5)CC4)c3c2c1` yielded an inhibition of 13.2%.
